The supplement of paper PMC3334620
Over roughly 33,000 sequences, “E-score (-0.5 to 0.5)” has its median near -0.035; the highest 2% begin near 0.35. Some of the results follow.

Target: T1, Pdr3 (UniProt P33200)
T1 sequence: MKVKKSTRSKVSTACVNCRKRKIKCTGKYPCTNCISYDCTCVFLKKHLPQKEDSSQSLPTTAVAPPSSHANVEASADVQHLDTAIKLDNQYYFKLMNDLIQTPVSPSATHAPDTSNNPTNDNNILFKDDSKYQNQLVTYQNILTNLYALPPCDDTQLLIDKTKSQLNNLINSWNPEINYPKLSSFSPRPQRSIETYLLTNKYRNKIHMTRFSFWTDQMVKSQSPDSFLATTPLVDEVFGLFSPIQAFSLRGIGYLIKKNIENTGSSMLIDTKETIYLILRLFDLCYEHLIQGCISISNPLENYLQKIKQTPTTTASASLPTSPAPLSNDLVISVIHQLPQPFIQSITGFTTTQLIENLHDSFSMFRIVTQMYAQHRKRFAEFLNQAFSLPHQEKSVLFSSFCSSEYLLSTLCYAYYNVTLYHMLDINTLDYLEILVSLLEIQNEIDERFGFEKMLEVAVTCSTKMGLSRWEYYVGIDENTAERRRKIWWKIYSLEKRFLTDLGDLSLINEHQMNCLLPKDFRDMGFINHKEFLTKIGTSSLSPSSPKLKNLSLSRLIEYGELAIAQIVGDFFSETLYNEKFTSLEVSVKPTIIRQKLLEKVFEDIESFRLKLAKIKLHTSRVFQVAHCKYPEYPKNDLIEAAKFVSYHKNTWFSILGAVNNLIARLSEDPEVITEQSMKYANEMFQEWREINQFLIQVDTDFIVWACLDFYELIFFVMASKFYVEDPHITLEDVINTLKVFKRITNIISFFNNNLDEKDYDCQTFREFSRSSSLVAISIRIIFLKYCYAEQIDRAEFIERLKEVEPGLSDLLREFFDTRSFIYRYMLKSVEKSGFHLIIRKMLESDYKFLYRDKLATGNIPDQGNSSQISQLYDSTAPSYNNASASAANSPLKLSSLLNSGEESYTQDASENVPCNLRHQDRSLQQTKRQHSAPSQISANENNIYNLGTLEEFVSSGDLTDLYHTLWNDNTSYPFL
Experiment: PBM E-score (8-mer binding enrichment) (E-score (-0.5 to 0.5)); higher = stronger / more preferred TF binding; most listed sequences are background and not binding sites
Conditions: protein concentration: 200 nM; construct: GST-full length
How it was run: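 Bound GST-tagged yeast transcription factors, applied at about 100-200 nM to double-stranded universal all-10-mer Agilent arrays, were detected with fluorescent anti-GST. Scans were normalised with masliner. A modified Wilcoxon-Mann-Whitney statistic, the E-score, was assigned to each ungapped eight-base word pooled with its reverse complement by the Universal PBM Analysis Suite.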

| Sequence | PBM E-score |
| --- | --- |
| AAGGTCTG | -0.0978 |
| CCAATTCG | -0.0707 |
| CCTCTTAA | 0.0409 |
| CATTGCTA | -0.0336 |
| CCACTACA | -0.0918 |
| AGGGAGAA | -0.0563 |
| CAACCAAA | 0.105 |
| AACTCTAC | -0.221 |
| ACAAGTAG | -0.144 |
| ACCATCTG | -0.0967 |
| CCTTCCTA | -0.401 |
| AGAACGCG | 0.192 |
| CCAGGAAA | -0.0248 |
| CGCGCGAA | 0.241 |
| CGCTTCTA | -0.157 |
| TGCTAGCA | -0.00367 |
| GCACACTA | 0.0604 |
| GCGTTTAA | -0.139 |
| CCGCCTTC | 0.0869 |
| AAGTGCGA | -0.122 |
| CCCGAAGG | 0.116 |
| CCACTGTC | -0.252 |
| AGTTAAAG | -0.13 |
| CTCAGCAA | -0.0842 |
| AACACATG | -0.0727 |

| Sequence | PBM E-score |
| --- | --- |
| CAGGGCTA | -0.258 |
| AGTCTATA | -0.247 |
| AATTAAAG | -0.0208 |
| ACCGTGGC | -0.107 |
| ATGATGAC | 0.056 |
| AATCAAAG | -0.129 |
| AAGCGAAA | -0.0467 |
| GACGGCGA | -0.0462 |
| ACATTCCG | 0.439 |
| AACGAAGT | -0.343 |
| GGGCAATA | 0.14 |
| ATATCAGC | 0.0261 |
| CGACTTTA | -0.0965 |
| TGAATGAA | -0.00047 |
| AAAGACGG | 0.0911 |
| AACGTGTA | -0.218 |
| GCGGTGTA | 0.00159 |
| AGATACCT | -0.075 |
| CTAGAAAG | -0.189 |
| CTAAACTC | -0.129 |
| TCATTACA | -0.0495 |
| ATTACATA | -0.191 |
| AGATTACT | -0.0748 |
| CGGGCAGA | 0.341 |
| CACTCAAA | -0.0687 |

| Sequence | PBM E-score |
| --- | --- |
| GAACAACA | -0.0517 |
| AGAAGACG | 0.00213 |
| CAGTGCGG | 0.206 |
| CTTTCTAC | -0.16 |
| CATCAATC | 0.0811 |
| AGTGTGTG | -0.0302 |
| GAGGAACC | 0.0227 |
| CGCCTTCA | -0.129 |
| AACTGGAA | 0.0374 |
| CCGCTTGC | 0.234 |
| AGCTCAGA | -0.143 |
| CAGGTTCC | 0.159 |
| GGTCTTAC | -0.183 |
| ACTTGGCC | -0.04 |
| AATATGGA | -0.0276 |
| ATACAGCC | -0.0331 |
| CACCCCGC | 0.273 |
| ACGCACCT | -0.00592 |
| CTTGTGAC | -0.0992 |
| ATGGACCG | 0.126 |
| CCATACCA | 0.0245 |
| CATGGTTC | 0.168 |
| ATTGAGGC | 0.0344 |
| CTGTATGC | -0.191 |
| GAAAGATC | 0.0565 |

| Sequence | PBM E-score |
| --- | --- |
| GGGGGGAA | -0.101 |
| CAATGAGG | -0.256 |
| AGTGCTAT | -0.232 |
| CAATAGGC | -0.0689 |
| GGAAGGTA | 0.158 |
| GAGTAACC | 0.0807 |
| GAGGGGCA | -0.15 |
| TGTATGAA | 0.149 |
| AACTTCAT | 0.0233 |
| GGGATTCA | 0.166 |
| CCTGTTCG | 0.0636 |
| CTCGTATA | -0.198 |
| CCACCTCG | 0.084 |
| ACTGCCTA | -0.187 |
| AAAAGTAA | 0.00938 |
| CCGAAAGG | 0.166 |
| CACGACGG | 0.243 |
| CGATAGCC | -0.049 |
| AGGTGAAT | 0.0812 |
| ACATCCAG | -0.105 |
| AAGGCGCA | -0.0103 |
| AGAGAAAC | -0.178 |
| CCAATGCA | -0.126 |
| GTAAACGA | -0.15 |
| AACCGGCC | 0.203 |

| Sequence | PBM E-score |
| --- | --- |
| GTGACTGA | -0.106 |
| GCGAGAAA | -0.0403 |
| CTGGGGCA | -0.276 |
| TAACGTCA | -0.206 |
| AGAACCCC | 0.0659 |
| GGCACAGA | 0.0327 |
| AGCCGCCT | 0.00711 |
| CGCGGACG | 0.342 |
| ACTCTGAT | -0.0309 |
| ACTGGCGC | 0.0452 |
| CCCTTCTA | -0.133 |
| ATTGAACG | -0.108 |
| ATCGTTGC | -0.136 |
| CTGGTAAA | -0.167 |
| ACGCTTTG | -0.00224 |
| GCTATCCC | 0.0292 |
| CAGCCTAG | -0.0778 |
| AAGCAAAT | -0.188 |
| ATCACGAG | -0.285 |
| AGGACCAG | -0.0599 |
| AGCGTAAG | -0.0892 |
| CATGTCGC | -0.0537 |
| AGCTAGGC | -0.136 |
| ACGTCCCA | -0.176 |
| ACTGCGAA | -0.212 |

| Sequence | PBM E-score |
| --- | --- |
| AGGGTAGA | -0.293 |
| GGTACGGA | 0.29 |
| ATGACTAC | -0.177 |
| CTAAGCGA | -0.197 |
| CCAGTAAG | -0.158 |
| GCTCCTAC | -0.154 |
| GCGCAGCA | -0.207 |
| GCAGCGAC | -0.0549 |
| GGTTGCCA | 0.233 |
| AGCCCCCG | 0.0472 |
| ACAAGATA | -0.0778 |
| CGCCAACG | 0.0596 |
| GGACGGAA | 0.429 |
| AGTTTGTC | -0.148 |
| ATCGCTAC | -0.0447 |
| ACGGTATG | 0.0196 |
| AGTTACCG | 0.216 |
| TGAACCAA | -0.0189 |
| AAATCAAA | -0.0314 |
| ATCTATAG | -0.139 |
| CTGATCCA | -0.00794 |
| ACATCAAG | -0.0572 |
| CGCGCTCC | 0.308 |
| GAGTGCTA | -0.0621 |
| AACTCCGG | 0.416 |

| Sequence | PBM E-score |
| --- | --- |
| GCGTATAA | 0.00264 |
| GTAGACAA | -0.0289 |
| CATATTCG | -0.00831 |
| ACATCTGG | -0.101 |
| GAAGGAGC | -0.327 |
| CTCCACGA | -0.144 |
| GAATTGAC | -0.0293 |
| ATGCCTTG | -0.197 |
| CCAGGGCG | 0.0977 |
| AATATAGG | 0.0479 |
| TCGAACAA | 0.0601 |
| CGTGGGAC | 0.0628 |
| CTGGCTCA | -0.0417 |
| GCGGGTCC | 0.243 |
| GCTATTCC | 0.243 |
| CGTCCTTA | -0.107 |
| AAAGAGCG | -0.00641 |
| AACAAGCC | -0.18 |
| GCCCCACA | -0.1 |
| ATCGTCGC | -0.103 |
| CAGCGCGG | 0.238 |
| ATCCTCCG | 0.2 |
| GACAATAA | 0.113 |
| CTAGTAAC | -0.114 |
| CGACACTC | 0.0775 |

| Sequence | PBM E-score |
| --- | --- |
| ACCTCCTC | -0.205 |
| CGCATCGC | -0.0738 |
| GAATCTCC | 0.225 |
| CCCTTCTC | -0.24 |
| CTTGTGTA | -0.0731 |
| CCGAAAGA | 0.23 |
| CACCGGTG | 0.0753 |
| ATTGATGG | -0.0929 |
| CGACGGAG | 0.331 |
| CCTACGAA | -0.0554 |
| GAAGGTCA | -0.19 |
| CCGTTCAC | 0.0894 |
| AGACCCCT | -0.328 |
| ATCAATGA | 0.0606 |
| GGCCCACC | 0.0165 |
| CGGACGAA | 0.372 |
| ACGGGCCC | 0.264 |
| GGACTTGA | 0.00562 |
| ATTCTTGG | 0.11 |
| ATTAAACC | 0.192 |
| GACCCGCA | 0.0817 |
| CCTACTCC | -0.0705 |
| GCGCTCCA | 0.0949 |
| ACGTACTA | -0.116 |
| CGATTCTC | 0.0688 |

| Sequence | PBM E-score |
| --- | --- |
| GAGGGGAA | 0.156 |
| ACCTTGGG | 0.00858 |
| AGGTGGCG | -0.1 |
| TGTGTGAA | -0.0422 |
| AGCAATAC | -0.0729 |
| ACTTTCCG | 0.417 |
| ATCAATTA | 0.131 |
| AATCTTAT | -0.0413 |
| AACATGTA | 0.0311 |
| TCTACAAA | -0.288 |
| AATGTAGT | -0.0844 |
| ACTTGAGA | -0.199 |
| CATTGGTC | -0.0762 |
| CACAAATC | -0.0493 |
| AACGAAAG | -0.0735 |
| GGGGTGGA | 0.0716 |
| AAAGTTCC | 0.2 |
| GTTTTCGA | -0.0845 |
| CACCTCTC | -0.217 |
